The source gives no read counts; variants with many changes may rest on few reads.

The chains are these.
B1: CPEB3 Ribozyme (parent)
chain: UAACAGGGGGCCACAGCAGAAGCGUUCACGUCGCAGCCCCUGUCAGAUUCUGGUGAAUCUGCGAAUUCUGCUGUAUAUCUC

The variants in the data set derive from B1. Briefly: self-cleavage, relative activity (ratio to wild type); higher = more cleavage; in vitro, sequencing. Summed up: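 After error-prone PCR and barcoding, CPEB3 ribozyme mutant libraries were transcribed with T7 RNA polymerase at 37°C for 5 hours, then given 15 min with DNase I before an EDTA stop, and they cleaved during both steps. Reverse transcription with template switching preceded Illumina sequencing. Relative activity divides a variant's cleaved/total read fraction by the unmutated ribozyme's. At least 5 reads were required per variant, and three batches were averaged.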
With U31C A64U U66A, the self-cleavage is 0.17.
Turning to G30C C38U U41C, the self-cleavage was determined as 0.24.
As for U31A G52A A56G U60A G70A, the figure is 0.22; as for U31A U67A U78A, 0.2; as for G30A A35G U41C U58C U72C U76C, 0.11.
With C29A U41C G46A, the self-cleavage worked out at 0.15.
U31A G63C U72C: the self-cleavage was determined as 0.51.
For U31A A35U U49C U54C U58A, the self-cleavage came to 0.06.
As for U31C A56U A64G, the figure is 0.15.
Under C29U C50A A56G stands 0.25.
For C29G A57G U67C, the self-cleavage was 0.15.
As for U31C A45G U54C A57G C71U, the figure is 0.04.
For the variant U31A A45G U49C, the self-cleavage came out at 0.4.
C29A U54C A57G A64G U69C U72A: the self-cleavage was determined as 0.05.
Under G30C U31C U43A A56G stands 0.17; under U31C A35G A45U U54A A56G U72A, 0.11; under U31A U54C U60C, 0.23.
For the variant U31A U43C A75U, the self-cleavage is 0.39.
Under U31A A47G U69C U72C stands 0.13; under G30U U41C U60C U72C, 0.15.
As for C29U A35U A47G U78C, the figure is 0.2; as for G30U U49A C62U A77U, 0.06; as for U31A U49C G55A A57U A64U, 0.07.
U31A U49C A56G: the self-cleavage was determined as 0.6.
As for U31C A35G U69C, the figure is 0.56.
As for C29U U41C A57G, the figure is 0.41; as for U31A U54A G63C U74C, 0.57.
As for U31A A57G C79A, the figure is 0.64.
With G30C C39A U74C U78C, the self-cleavage was 0.07.
Consider U31C A56G U58C U72C, for which the self-cleavage amounted to 0.26.
With U31C A35U A56G U67C U72C U78C, the self-cleavage came out at 0.04.
U31A U60C C79A: the self-cleavage was 0.27.
Under G30A U41C A57G U72A U80C stands 0.05.
Under G30A G46U A56U stands 0.13; under C29G U31A C40U U41A A47G A75U, 0.17; under U31A U58C U72C, 0.28.
As for C29G A35G U72A U74C, the figure is 0.12; as for U31A A47G U48C, 0.26; as for C29U U41C U72C, 0.63.
C29U A57G U58A: the self-cleavage was 0.38.
Take C29A U60A U76A: the self-cleavage is 0.27.
With U31A U48C A57G U72C, the self-cleavage was 0.41.
As for U31C A35G C39U, the figure is 1.29.
Under U31A U41G U60G U78C stands 0.11.
As for C29U A56G A64G A77G, the self-cleavage is 0.13.
Regarding U31C A47G G63A, the self-cleavage is 0.54.
For the variant U31C A35G C40G U51C, the self-cleavage is 0.18.
With C29U C32A U49A U80C, the self-cleavage was 0.19.
As for U31A A35U A45U U72C U74C C79A, the self-cleavage was 0.05.
For U31A U54G U72C, the self-cleavage was 0.74.
As for C29U G52A U54C A75G, the self-cleavage was 0.33.
In the case of G30U U43A A45G G70A U74A, the self-cleavage came to 0.07.
Under U31A U49C U51A U67C stands 0.26.
Under G30U U41C U51C stands 0.17; under U31A C59U U69A U74C, 0.14; under C29U U31A C40U U51C, 0.18.
Under G30A U41C C44U U54C U67C stands 0.1; under G30A U48C U54C, 0.11; under U31A A35G A77G, 1.28.
For the variant G30A U49C U78A, the self-cleavage was 0.1.
As for C29U U31A U41C, the figure is 0.29.
Turning to U31C A64G U80C, the self-cleavage turned out to be 0.72.
U31A C40A U51C U58C U67C: the self-cleavage was 0.05.
As for G30U U49C A65U, the figure is 0.1; as for C29U A64G U66C U80A, 0.14; as for U31A A35U A47G U54A C59G, 0.08.
As for G30A A45G U49A A56G U80C, the figure is 0.09.
For the variant U31C A35G A45U A65C U69C U72A, the self-cleavage stood at 0.18.
As for C29G U54C A77U, the figure is 0.1; as for C29G U69C U72A, 0.05.
Consider G30C U48C G63A U74C, for which the self-cleavage was 0.14.
As for C29U U43C A56U U69A, the figure is 0.17.
Under U31A A47U U49A A65U U78C stands 0.13.
As for C29U A35G A75G, the figure is 1.23; as for U31A U43C U66G U80C, 0.18.
Turning to U31A U54C U76C, the self-cleavage stood at 0.49.
As for U31A U51A A64U A65G, the figure is 0.17.
As for U31A U60A U80C, the figure is 0.3; as for C29U A64G U80C, 0.75; as for G30U A35G A56G, 0.19.
Regarding U31C A57G U78C, the self-cleavage was found to be 0.65.
In the case of G30A U43A G52U U76C, the self-cleavage amounted to 0.47.
As for U31C A45U C71G, the figure is 0.14.

For the origin of these results see the RNAGym collection of RNA variant scans (doi:10.1093/nar/gkz1192).
